# Results taken from the supplement of paper PMC8728848.
# Some of the results follow.
# How the values were obtained:
# Experiment in all cases: glycan array binding signal (z-score within array); higher = stronger binding
# Conditions in all cases: glycan notation: IUPAC condensed, linker removed
# [1] = target: Fuc(a1-2)Gal
# Summary of the method: (§1)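 From the Consortium for Functional Glycomics database, 3228 arrays were curated, keeping only those whose protein sequence was available. Binding is given as a within-array Z-score averaged across arrays sharing a protein sequence and across linkers. Negative Z-scores can be read as non-binding.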
# [2] = target: Fuc(a1-2)Gal(b1-3)GalNAc
# Summary of the method: as §1
# [3] = target: Fuc(a1-2)Gal(b1-3)GalNAc(a1-3)[Fuc(a1-2)]Gal(b1-4)Glc
# Summary of the method: as §1
# [4] = target: Fuc(a1-2)Gal(b1-3)GalNAc(a1-3)[Fuc(a1-2)]Gal(b1-4)GlcNAc
# Summary of the method: as §1
# [5] = target: Fuc(a1-2)Gal(b1-3)GalNAc(b1-3)Gal
# Summary of the method: as §1
# [6] = target: Fuc(a1-2)Gal(b1-3)GalNAc(b1-3)Gal(a1-4)Gal(b1-4)Glc
# Summary of the method: as §1
# [7] = target: Fuc(a1-2)Gal(b1-3)GalNAc(b1-4)[Neu5Ac(a2-3)]Gal(b1-4)Glc
# Summary of the method: as §1
# [8] = target: Fuc(a1-2)Gal(b1-3)GlcNAc
# Summary of the method: as §1
# [9] = target: Fuc(a1-2)Gal(b1-3)GlcNAc(b1-2)Man(a1-3)[Fuc(a1-2)Gal(b1-3)GlcNAc(b1-2)Man(a1-6)]Man(b1-4)GlcNAc(b1-4)GlcNAc
# Summary of the method: as §1
# [10] = target: Fuc(a1-2)Gal(b1-3)GlcNAc(b1-2)Man(a1-3)[Fuc(a1-2)Gal(b1-3)GlcNAc(b1-2)Man(a1-6)]Man(b1-4)GlcNAc(b1-4)[Fuc(a1-6)]GlcNAc
# Summary of the method: as §1
# [11] = target: Fuc(a1-2)Gal(b1-3)GlcNAc(b1-3)Gal(b1-4)Glc
# Summary of the method: as §1
# [12] = target: Fuc(a1-2)Gal(b1-3)GlcNAc(b1-3)GalNAc
# Summary of the method: as §1
# [13] = target: Fuc(a1-2)Gal(b1-3)GlcNAc(b1-3)[Fuc(a1-2)Gal(b1-3)GlcNAc(b1-6)]GalNAc
# Summary of the method: as §1
# [14] = target: Fuc(a1-2)Gal(b1-3)GlcNAc(b1-3)[Gal(b1-4)GlcNAc(b1-6)]Gal(b1-4)Glc
# Summary of the method: as §1
# [15] = target: Fuc(a1-2)Gal(b1-3)GlcNAc(b1-3)[Neu5Ac(a2-6)Gal(b1-4)GlcNAc(b1-6)]Gal(b1-4)Glc
# Summary of the method: as §1
# [16] = target: Fuc(a1-2)Gal(b1-3)GlcNAc6S
# Summary of the method: as §1
# [17] = target: Fuc(a1-2)Gal(b1-3)[Fuc(a1-4)]GlcNAc
# Summary of the method: as §1
# [18] = target: Fuc(a1-2)Gal(b1-3)[Fuc(a1-4)]GlcNAc(b1-2)Man(a1-3)[Fuc(a1-2)Gal(b1-3)[Fuc(a1-4)]GlcNAc(b1-2)Man(a1-3)]Man(b1-4)GlcNAc(b1-4)GlcNAc
# Summary of the method: as §1
# [19] = target: Fuc(a1-2)Gal(b1-3)[Fuc(a1-4)]GlcNAc(b1-2)Man(a1-3)[Fuc(a1-2)Gal(b1-3)[Fuc(a1-4)]GlcNAc(b1-2)Man(a1-6)]Man(b1-4)GlcNAc(b1-4)[Fuc(a1-6)]GlcNAc(b1-4)[Fuc(a1-6)]GlcNAc
# Summary of the method: as §1
# [20] = target: Fuc(a1-2)Gal(b1-3)[Fuc(a1-4)]GlcNAc(b1-3)[Fuc(a1-3)[Gal(b1-4)]GlcNAc(b1-6)]Gal(b1-4)Glc
# Summary of the method: as §1
# [21] = target: Fuc(a1-2)Gal(b1-3)[Fuc(a1-4)]GlcNAc(b1-3)[Gal(b1-4)GlcNAc(b1-6)]Gal(b1-4)Glc
# Summary of the method: as §1
# [22] = target: Fuc(a1-2)Gal(b1-4)Fuc(a1-3)]GlcNAc(b1-2)Man(a1-3)[Fuc(a1-2)Gal(b1-4)[Fuc(a1-3)]GlcNAc(b1-2)Man(a1-6)]Man(b1-4)GlcNAc(b1-4)GlcNAc
# Summary of the method: as §1
# [23] = target: Fuc(a1-2)Gal(b1-4)Glc
# Summary of the method: as §1
# [24] = target: Fuc(a1-2)Gal(b1-4)Glc6S
# Summary of the method: as §1
# [25] = target: Fuc(a1-2)Gal(b1-4)GlcNAc
# Summary of the method: as §1
# [26] = target: Fuc(a1-2)Gal(b1-4)GlcNAc(b1-2)Man
# Summary of the method: as §1
# [27] = target: Fuc(a1-2)Gal(b1-4)GlcNAc(b1-2)Man(a1-3)[Fuc(a1-2)Gal(b1-4)GlcNAc(b1-2)Man(a1-6)]Man(b1-4)GlcNAc(b1-4)GlcNAc
# Summary of the method: as §1
# [28] = target: Fuc(a1-2)Gal(b1-4)GlcNAc(b1-2)Man(a1-3)[Fuc(a1-2)Gal(b1-4)GlcNAc(b1-2)Man(a1-6)]Man(b1-4)GlcNAc(b1-4)[Fuc(a1-6)]GlcNAc
# Summary of the method: as §1
# [29] = target: Fuc(a1-2)Gal(b1-4)GlcNAc(b1-2)[Fuc(a1-2)Gal(b1-4)GlcNAc(b1-4)]Man(a1-3)[Fuc(a1-2)Gal(b1-4)GlcNAc(b1-2)Man(a1-6)]Man(b1-4)GlcNAc(b1-4)GlcNAc
# Summary of the method: as §1
# [30] = target: Fuc(a1-2)Gal(b1-4)GlcNAc(b1-3)Gal(b1-4)GlcNAc
# Summary of the method: as §1
# [31] = target: Fuc(a1-2)Gal(b1-4)GlcNAc(b1-3)Gal(b1-4)GlcNAc(b1-2)Man(a1-3)[Fuc(a1-2)Gal(b1-4)GlcNAc(b1-3)Gal(b1-4)GlcNAc(b1-2)Man(a1-6)]Man(b1-4)GlcNAc(b1-4)GlcNAc
# Summary of the method: as §1
# [32] = target: Fuc(a1-2)Gal(b1-4)GlcNAc(b1-3)Gal(b1-4)GlcNAc(b1-3)Gal(b1-4)GlcNAc
# Summary of the method: as §1
# [33] = target: Fuc(a1-2)Gal(b1-4)GlcNAc(b1-3)GalNAc
# Summary of the method: as §1
# [34] = target: Fuc(a1-2)Gal(b1-4)GlcNAc(b1-3)[Fuc(a1-2)Gal(b1-4)GlcNAc(b1-6)]GalNAc
# Summary of the method: as §1
# [35] = target: Fuc(a1-2)Gal(b1-4)GlcNAc(b1-3)[Fuc(a1-3)[Gal(b1-4)]GlcNAc(b1-6)]Gal(b1-4)Glc
# Summary of the method: as §1
# [36] = target: Fuc(a1-2)Gal(b1-4)GlcNAc(b1-6)GalNAc
# Summary of the method: as §1
# [37] = target: Fuc(a1-2)Gal(b1-4)GlcNAc6S
# Summary of the method: as §1
binder,measurement,setting,value
"SSP1 (Sclerotinia sclerotiorum), XP_001584968 (protein) MGSSHHHHHHSSGLVPRGSHMSLLTTELACTSAPDQVLHLFFQDGQNILEARSPDGGNVWTTQDTIIAKDGDYNGSSMTCYYVDKDANFDNQPSIHLLYMNKDKQLTEKVKRMKGDNPIWEDAKVPDEVRKGPEQYSKLTSGSFNQGTGWNPNGSQWAYFSASKDGKMGIVEIRRTPKDPWHTETILEEKWGDELPGTALACVIGNGKIRVFLQHHDYSIILYENQNNTWHDRGTFIPKDKVQATTPLACTMTKDGSVHLFYVSKSNKIIHCTDGKKEEELINFFPGSKLGATSVENKITLFFRNLNPVNEVGTLENENGSWKHGTTVIPA",glycan array binding signal (z-score),[1],-0.634
same,glycan array binding signal (z-score),[2],0
same,glycan array binding signal (z-score),[3],-0.231
same,glycan array binding signal (z-score),[4],-0.034
same,glycan array binding signal (z-score),[5],1.22
same,glycan array binding signal (z-score),[6],-0.063
same,glycan array binding signal (z-score),[7],-0.22
same,glycan array binding signal (z-score),[8],-0.026
same,glycan array binding signal (z-score),[9],1.11
same,glycan array binding signal (z-score),[10],-0.147
same,glycan array binding signal (z-score),[11],-0.126
same,glycan array binding signal (z-score),[12],-0.072
same,glycan array binding signal (z-score),[13],0.083
same,glycan array binding signal (z-score),[14],-0.099
same,glycan array binding signal (z-score),[15],0.347
same,glycan array binding signal (z-score),[16],0.646
same,glycan array binding signal (z-score),[17],-0.279
same,glycan array binding signal (z-score),[18],0.937
same,glycan array binding signal (z-score),[19],-0.423
same,glycan array binding signal (z-score),[20],-0.184
same,glycan array binding signal (z-score),[21],-0.405
same,glycan array binding signal (z-score),[22],0.411
same,glycan array binding signal (z-score),[23],0.672
same,glycan array binding signal (z-score),[24],-0.344
same,glycan array binding signal (z-score),[25],-0.221
same,glycan array binding signal (z-score),[26],-0.573
same,glycan array binding signal (z-score),[27],-0.04
same,glycan array binding signal (z-score),[28],0.31
same,glycan array binding signal (z-score),[29],0.056
same,glycan array binding signal (z-score),[30],-0.903
same,glycan array binding signal (z-score),[31],0.094
same,glycan array binding signal (z-score),[32],0.283
same,glycan array binding signal (z-score),[33],-0.123
same,glycan array binding signal (z-score),[34],-0.366
same,glycan array binding signal (z-score),[35],-0.146
same,glycan array binding signal (z-score),[36],0.061
same,glycan array binding signal (z-score),[37],-0.116
